The campaign covered roughly 410,000 compounds. About 5,000 (1.2%) were called active. Inconclusive results, whose numbers are uncertain, are shown with a selection of clear calls. Calls come from the whole dose curve; as a rule, active = well fitted inhibition curve with a large enough effect; inconclusive = small, poorly fitted or top-dose-only effect; inactive = no such curve, though single readings can be large or run the other way. Where the call is inconclusive, the potency comes from a doubtful curve fit.
Assay: qHTS for Inhibitors of TGF-b; note: nearly all actives have a fitted effect of over 65% in size
Details: HepG2 CAGA-GFP TGF-b/SMAD3 reporter, GFP fluorescence, 18 h, TGF-beta stimulated, 500 pg/mL final; series mostly up to 46.1 µM; activity, negative = inhibition: at the top concentration
Method in brief: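 HEPG2 CAGA-GFP, 1000 cells/well; 2 h settle, 37 C; cpd via pin tool; TGF-b 500 pg/mL final; 18 h, 37 C; GFP imaging ex488/em500-530; %Activity normalised to -TGF-b and +DMSO controls; CRC fit, curve class.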
% is set by controls: 0 for no effect and ±100 for the full control effect; potency is the fitted concentration of half-maximal effect; tags give direction and shape of the fitted curve.

| SMILES | Potency | activity, negative = inhibition |
| --- | --- | --- |
| CC1(c2ccccc2)NC(=O)N(CC(=O)NCC2CCCO2)C1=O (centres undefined) | inconclusive: 22.4 µM [inhibitor, single point] |  |
| CCOC(=O)C1(CCc2ccccc2)CCN(C2Cc3ccccc3C2)CC1 | inconclusive: 20 µM [inhibitor, single point] |  |
| CC(C)C[C@H](NC(=O)c1nc[nH]c1C(=O)N1CCc2ccccc2C1)C(=O)OC(C)(C)C | inconclusive: 35.5 µM [inhibitor, single point] |  |
| CCCc1ccc(OCc2ccc(C(=O)OC)o2)c(OC)c1 | inconclusive: 3.55 µM [inhibitor, single point] |  |
| CN(C)CCNc1ncnc2c1cnn2-c1ccc(Cl)cc1 | inconclusive: 35.5 µM [inhibitor, single point] |  |
| COC(=O)/C=C/c1oc2ccccc2c1C |  | inactive: -2.08% |
| O=C(NC1(O)C(=O)c2ccccc2C1=O)c1ccc(C(F)(F)F)cc1 | inconclusive: 35.5 µM [inhibitor, single point] |  |
| CCCCOc1ccc(C(=O)Nc2ccc(S(=O)(=O)Nc3nc(C)cc(C)n3)cc2)cc1 | inconclusive: 35.5 µM [inhibitor, single point] |  |
| Cc1ccc2nc(-c3ccc(Cl)c(NC(=O)c4ccc5c(c4)OCCO5)c3)oc2c1 |  | inactive: -6.31% |
| CC(C)(C)C1CCc2c(sc(NC(=O)c3ccco3)c2C(N)=O)C1 (centres undefined) |  | inactive: 0% |
| Cc1ccc(C)c(NC(=O)CN2C(=O)C3(SCC(=O)N3c3ccc(C)c(C)c3)c3ccccc32)c1 (centres undefined) |  | inactive: -0.535% |
| CCOc1ccc(NS(=O)(=O)c2ccc(C(=O)NCC(c3ccc(OC)cc3)N3CCCC3)cc2)cc1 (centres undefined) | inconclusive: 35.5 µM [inhibitor, single point] |  |
| COc1ccc(NC(=O)Cc2nnc(SCC(=O)c3ccccc3)n2C)cc1 |  | inactive: -10.6% |
| CC1=C(C(=O)Nc2cccnc2)C(c2ccccc2)n2nc(SCc3ccccc3)nc2N1 (centres undefined) |  | inactive: 5.65% |
| CC(C)OC(=O)c1nnn(-c2nonc2N)c1CSc1ccccn1 | inconclusive: 0.794 µM [inhibitor, full curve, poor fit] |  |
| COc1ccc(S(=O)(=O)N2CCOCC2)cc1NC(=O)CN1C(=O)NC2(CCCC2)C1=O |  | inactive: 3.04% |
| CCOC(=O)c1cnc2c(OC)cccc2c1N1CCN(c2ccccc2OC)CC1 | inconclusive: 20 µM [inhibitor, partial curve, poor fit] |  |
| Cn1cc(Br)c(C(=O)NC2C3CC4CC(C3)CC2C4)n1 (centres undefined) | inconclusive: 12.6 µM [inhibitor, partial curve, poor fit] |  |
| NC(=S)N=Nc1c(O)n(CCCl)c2ccc(Br)cc12 | inconclusive: 10 µM [inhibitor, partial curve] |  |
| C[C@H](CO)N1C[C@H](C)[C@H](CN(C)Cc2ccc(Oc3ccccc3)cc2)Oc2ccc(NC(=O)Nc3cccc4ccccc34)cc2CC1=O | inconclusive: 0.708 µM [inhibitor, full curve, poor fit] |  |
| O=C(NCC1COc2ccccc2O1)c1ccc(Br)s1 (centres undefined) |  | inactive: -1.11% |
| CCOCc1c(C(=O)NCC(c2ccco2)N2CCCC2)oc2ccccc12 (centres undefined) |  | inactive: -3.97% |
| CCCCCCCCNc1ccccc1S(=O)(=O)NCc1ccccc1 | inconclusive: 35.5 µM [inhibitor, single point] |  |

| SMILES | Potency | activity, negative = inhibition |
| --- | --- | --- |
| CCOc1cc(-c2cc(-c3ccc(N)cc3)nc(N)c2C#N)ccc1O | inconclusive: 1.41 µM [inhibitor, partial curve, poor fit] |  |
| N#Cc1ccccc1Cn1c(=O)n(CCCC(=O)NCc2ccccc2Cl)c(=O)c2ccccc21 |  | inactive: 0% |
| O=C(Nc1ccc(F)c(Cl)c1)C1CCN(C(=O)c2ccc(F)cc2)CC1 | inconclusive: 35.5 µM [inhibitor, single point] |  |
| COc1ccc(C2=Nc3ccccc3NC(=O)C2N(Cc2ccccc2)C(=O)C2=NNC(=O)CC2)cc1 (centres undefined) | inconclusive: 0.562 µM [inhibitor, full curve, poor fit] |  |
| COc1ccc(Cl)cc1NC(=O)CSC1=Nc2ccccc2C2=NC(CCC(=O)NCc3ccc(F)cc3)C(=O)N12 (centres undefined) |  | inactive: -23.6% |
| O=C(CN1C(=O)COc2ccccc21)NCCCN1CCOCC1 |  | inactive: -7.13% |
| O=C(CCSc1ccc(Cl)cc1)c1ccco1 | active: 11.2 µM |  |
| C=CCNc1nc(NC2CCN(C)CC2)c2cc(OC)c(OC)cc2n1 | inconclusive: 35.5 µM [inhibitor, single point] |  |
| O=c1c(O)c(-c2ccc(O)c(O)c2)oc2cc(O)ccc12 | inconclusive: 35.5 µM [inhibitor, single point] |  |
| COc1ccc(-c2nc(C(N)=O)c3[nH]c(=O)n(-c4cccc(Cl)c4)c3n2)cc1OC | inconclusive: 15.8 µM [inhibitor, single point] |  |
| CSc1ccc(OC2CCCCC2NS(=O)(=O)c2ccccc2)cc1 (centres undefined) | inconclusive: 28.2 µM [inhibitor, single point] |  |
| OCC1(Cc2cccc(C(F)(F)F)c2)CCN(Cc2cc3ccccc3o2)CC1 | inconclusive: 35.5 µM [inhibitor, single point] |  |
| CCCC(=O)NC(c1ccc(C)cc1)c1ccc2cccnc2c1O (centres undefined) | inconclusive: 2.82 µM [inhibitor, partial curve, poor fit] |  |
| COc1ccc(N(CC(=O)Nc2cc([N+](=O)[O-])ccc2C)S(C)(=O)=O)cc1OC |  | inactive: -5.32% |
| COc1cccc(-c2nc(CS(=O)(=O)CC(=O)NCCc3ccc(OC)cc3OC)c(C)o2)c1 | inconclusive: 11.2 µM [inhibitor, partial curve, poor fit] |  |
| Clc1ccc(Cn2nc(-c3ccccc3)nc2-c2ccccc2)cc1 |  | inactive: -29.8% |
| Cc1c(C)c(C)c2[nH]c(-c3ccc4c(c3)OCO4)nc2c1C | inconclusive: 28.2 µM [inhibitor, single point] |  |
| Cc1cc(C)cc(NC(=O)N2CCNC(=O)C2CC(=O)Nc2cc(Cl)ccc2Cl)c1 (centres undefined) |  | inactive: -4.86% |
| CCOC(=O)Nc1nc(-c2ccccc2)c(C(=O)c2ccc(Cl)cc2)s1 | active: 8.91 µM |  |
| Cc1cc(C)c(S(=O)(=O)c2ccccc2C)c(OCC(C)(C)C)n1 | inconclusive: 35.5 µM [inhibitor, single point] |  |
| CCOC(=O)c1scc(-c2ccccc2)c1S(=O)(=O)Nc1ccc(N(C)C)cc1 | inconclusive: 14.1 µM [inhibitor, single point] |  |
| CC(C)CN(CCCNC(=O)c1cc(-c2ccc(Br)s2)nc2ccccc12)CC(C)C |  | inactive: 14.3% |
| COc1ccccc1C1CC(c2ccc(Cl)cc2)Nc2nc(N)nn21 (centres undefined) |  | inactive: -6.34% |

| SMILES | Potency | activity, negative = inhibition |
| --- | --- | --- |
| CCc1nnc(SCc2cccc(F)c2)c2cc3sc(C)cc3n12 | inconclusive: 0.447 µM [inhibitor, full curve, poor fit] |  |
| COc1ccc(CCN(C)C2CCCN(S(=O)(=O)c3ccc(C)cc3)C2)cc1OC (centres undefined) | inconclusive: 35.5 µM [inhibitor, single point] |  |
| COc1cccc(-c2nn(-c3ccccc3)cc2CO)c1 |  | inactive: 1.49% |
| Cc1ccc(C)c(NC(=O)C(Sc2nncn2C)c2ccccc2)c1 (centres undefined) |  | inactive: -1.56% |
| CCOCCCNC(=O)c1ccc2c(c1)ncn2-c1cccc(C)c1 |  | inactive: 0.0653% |
| COC(C[C@@H]1O[C@@H]1C(=O)[C@H](C)OCc1ccccc1)OC | inconclusive: 0.112 µM [inhibitor, full curve, poor fit] |  |
| COc1cc(OC)c(NC(=O)C(c2ccccc2)N2Cc3ccccc3C2=O)cc1Cl (centres undefined) |  | inactive: -33.3% |
| C[C@H](O)[C@@H]1CN2CCc3c([nH]c4ccccc34)[C@@H]2C[C@@H]1N(C)C(=S)Nc1ccc(C#N)cc1 | inconclusive: 35.5 µM [inhibitor, partial curve, poor fit] |  |
| CC(C)CC1CC(C)(c2csc(NNC(=O)c3ccccc3)n2)OC1=O (centres undefined) | inconclusive: 3.55 µM [inhibitor, partial curve] |  |
| CCCc1c(C)nc2ccccc2c1SCCC#N | inconclusive: 35.5 µM [inhibitor, single point] |  |
| COc1ccc(CC(=O)Nc2ccccc2NC(=O)c2ccco2)cc1OC | inconclusive: 5.62 µM [inhibitor, full curve] |  |
| O=S(=O)(Nc1nc2ccccc2nc1Nc1ccc(N2CCOCC2)cc1)c1cc(Cl)ccc1Cl |  | inactive: 1.6% |
| CC(O)C(NS(=O)(=O)c1ccc(Cl)cc1)C(=O)OCCOc1ccc(F)cc1 (centres undefined) | inconclusive: 35.5 µM [inhibitor, single point] |  |
| COc1ccc(CCNC(=O)c2ccc3nc(Cc4ccccc4)oc3c2)cc1OC | inconclusive: 17.8 µM [inhibitor, single point] |  |
| COc1ccc(N(CC(=O)NCCc2ccccc2)S(=O)(=O)c2ccc(OC)c(OC)c2)cc1 |  | inactive: -3.16% |
| Cc1ccc(NC(=O)Nc2cc(-c3ccccc3)nn2C)cc1Cl | inconclusive: 10 µM [inhibitor, partial curve] |  |
| COc1ccc(NC(=O)c2cnn(-c3ccc(F)cc3F)c2C2CCN(C(=O)OC(C)(C)C)CC2)cc1Cl | inconclusive: 0.251 µM [inhibitor, full curve, poor fit] |  |
| Cc1cc(NC(=O)COC(=O)C2CC(=O)N(c3ccc(Cl)cc3)C2)no1 (centres undefined) |  | inactive: 3.16% |
| COc1cc(NC(=S)Nc2cccc(C)n2)cc(OC)c1OC | inconclusive: 8.91 µM [inhibitor, partial curve] |  |
| Cc1c(C(=O)OCC(=O)NC(=O)NC2CCCCC2)cccc1[N+](=O)[O-] |  | inactive: 0.984% |
| COc1cc(OC)c(OC)cc1CCC(C)NCCC(c1ccccc1)c1ccccc1 (centres undefined) | active: 14.1 µM |  |
| Cc1ccccc1NC(=O)c1c(C)oc2ccc(O)c(CN3CCC(C)CC3)c12 | inconclusive: 35.5 µM [inhibitor, single point] |  |
| Cc1ccc(C(NC(=O)C2CCN(CCOc3ccc(Cl)cc3)CC2)c2ccccn2)cc1 (centres undefined) | inconclusive: 7.94 µM [inhibitor, partial curve, poor fit] |  |

From PubChem BioAssay AID588855 (National Center for Advancing Translational Sciences (NCATS), 2011)
